# The whole screen tested about 360,000 compounds, of which about 7,500 (2.1%) were called active. This list was built around the results that the source calls inconclusive (neither active nor inactive); the mix of calls is not that of the screen. The call rests on the fitted dose curve; in most records, active means well fitted cell-killing curve with a large enough effect; inconclusive means small, poorly fitted or top-dose-only effect, or effect the other way, or another doubt; inactive means no such curve, though single readings can be large or run the other way. Potencies of inconclusive entries are left out as doubtful fits.
# Assay: qHTS for induction of synthetic lethality in tumor cells producing 2HG: qHTS for the HT-1080-IDH1KD cell line;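 on activity, negative = toxicity: 0% = DMSO wells and -100% = cell-free medium wells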
# Details: HT-1080 IDH1 knockdown viability, ATP luminescence, 48 h; activity, negative = toxicity: at 46.1 µM (top of the series) unless noted
# Procedure, shortened: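 Cytotoxicity counter-line: IDH1KD HT-1080, 48 h, CellTiter-Glo. Curves classed by r2, magnitude and activity.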
# Potency means the concentration at half of the fitted maximal effect; tags describe the fitted curve by direction and shape.
Compound,Potency,"activity, negative = toxicity"
NC(=O)N1CCC2(CC1)NC(=O)N(c1ccccc1)N2,active: 6.51 µM,–
Cc1cc(N2CCN(C(=O)c3[nH]c(C(F)(F)F)nc3-c3ccccc3)CC2)c2ccccc2n1,"inconclusive [cytotoxic, full curve]",–
COc1ccc(C)cc1NC(=O)c1nnn(Cc2cc(C)ccc2C)c1N,"inconclusive [cytotoxic, partial curve]",–
CN(C)CC(CCCCC(CN(C)C)C(=O)c1ccccc1)C(=O)c1ccccc1 (stereo unspecified),"inconclusive [cytotoxic, single point]",–
O=C1CC(c2cccc(F)c2)SC(N(c2ccccc2)c2ccccc2)=N1 (stereo unspecified),"inconclusive [cytotoxic, single point]",–
Cc1ccc(S(=O)(=O)N(C)CC(=O)OCC(=O)Nc2ccccc2)cc1,"inconclusive [rising, single point]",–
Cc1ccnc(NC(=O)c2cc3ccccc3o2)c1,"inconclusive [cytotoxic, partial curve]",–
Cc1nn(-c2ccccc2)c(C)c1NC(=O)COc1ccc2ccccc2c1,"inconclusive [cytotoxic, single point]",–
CC(=O)c1cc(F)ccc1OCC(=O)Nc1ccc2c(c1)OCO2,"inconclusive [cytotoxic, single point]",–
Cc1cc(C)cc(NS(=O)(=O)c2ccc3[nH]cc(C(=O)NCc4ccco4)c(=O)c3c2)c1,active: 5.17 µM,–
CC(C)C1C(=O)N(Cc2cn(Cc3ccco3)nn2)CCS(=O)(=O)N1Cc1ccc(-c2ccc(F)cc2)cc1 (stereo unspecified),"inconclusive [cytotoxic, single point]",–
Cc1ccc(Sc2cc(C(=O)NCCCN(C)C)c3ccccc3n2)cc1,active: 18.4 µM,–
CCOC(=O)C1=C(C)N=C2SC(C(=O)OC)=CC(=O)N2C1c1ccc(OC)cc1 (stereo unspecified),–,inactive: 9.51%
CC(C)Sc1nnc(NC(=O)c2ccc3c(c2)OCO3)s1,"inconclusive [cytotoxic, single point]",–
COc1ccc(NC(=O)c2cc(-c3cc(F)ccc3OC(C)C)n[nH]2)cc1OC,"inconclusive [cytotoxic, single point]",–
Cc1ccc(C(C)NC(=S)NCc2ccc(F)cc2)c(C)c1 (stereo unspecified),–,inactive: 7.79%
CC(=O)c1ccc(-n2c(SCC(=O)c3c[nH]c4ccccc34)nc3ccccc3c2=O)cc1,"inconclusive [cytotoxic, single point]",–
CC1Cc2ccccc2N1C(=O)CSc1nnc(N)s1 (stereo unspecified),–,inactive: 24%
CCOC(=O)C1(C(=O)OCC)CCN(S(=O)(=O)c2ccccc2)CC1,–,inactive: 0.616%
OC(CCN1CCOCC1)(c1ccc(Cl)cc1)C1CCCCC1 (stereo unspecified),–,inconclusive: -32.5% [cytotoxic]
CCOC(=O)c1ccc(N=C2SC(C(=O)Nc3ccc(C(=O)O)cc3)CC(=O)N2Cc2cccs2)cc1 (stereo unspecified),"inconclusive [cytotoxic, partial curve]",–
O=C(c1cccc([N+](=O)[O-])c1)N1CCN(c2n[nH]c(=O)[nH]c2=O)CC1,–,inactive: 6.7%
CC(C)N(C(=O)[C@H]1C[C@H](CC(=O)NCCN2CCOCC2)C(=O)N2CCc3c([nH]c4cc(-c5ccco5)ccc34)[C@]12C)C(C)C,–,inactive: -12.7%
Cc1ccc(C)c(NC(=O)CCN2C(=O)[C@@H]3Cc4ccccc4CN3C2=O)c1,"inconclusive [rising, partial curve, poor fit]",–

Compound,Potency,"activity, negative = toxicity"
CCNC(=O)Oc1ccc[nH]c1=O,"inconclusive [cytotoxic, single point]",–
CC(C)c1ccc(C(=O)Nc2ccc(S(=O)(=O)NC3=NCCCCC3)cc2)cc1,"inconclusive [cytotoxic, single point]",–
CCOc1cc(NC(=O)c2ccco2)c(OCC)cc1NC(=O)c1cc(OC)c(OC)c(OC)c1,"inconclusive [cytotoxic, single point]",–
COc1ccc(-c2nc3ccccc3c(C(=O)Nc3ccc(S(=O)(=O)Nc4cc(C)on4)cc3)c2C)cc1,"inconclusive [cytotoxic, single point]",–
Cc1cc2c(c(/C=C/C(=O)c3ccccc3)c1)OC1(C=C2)Oc2ccccc2C(=O)N1C (stereo unspecified),"inconclusive [cytotoxic, single point]",–
Cc1ccc(NC(=O)NC(=O)CN2C(=O)NC3(CCc4ccccc43)C2=O)c(C)c1 (stereo unspecified),–,inactive: 2.3%
S=c1[nH]nc(CN2CCCCC2)n1Cc1ccccc1,"inconclusive [rising, single point]",–
COc1ccc2c(c1)CCc1c-2nc2ccccc2c1N1CCOCC1,"inconclusive [cytotoxic, single point]",–
C/C(=N\NC(=O)C(=O)Nc1cccc(Cl)c1C)c1ccncc1,–,inconclusive: 27.3%
COc1ccc(C2/C(=C(\O)c3ccc4c(c3)CC(C)O4)C(=O)C(=O)N2Cc2cccnc2)c(OC)c1 (stereo unspecified),–,inactive: 3%
COc1ccc(/C=C2\CCC(C3CCCC3)C2=O)cc1Cn1cccn1 (stereo unspecified),–,inactive: -7.55%
C=CCNc1nc2cc(-c3cccc(NC(C)=O)c3)sc2c(=O)n1C,"inconclusive [cytotoxic, single point]",–
C=CCc1cc(OC)ccc1OCC(O)CN1CCN(c2ccc(OC)cc2)CC1 (stereo unspecified),inactive,–
COc1cc2c(cc1OC)CN(C(=O)CCNC(=O)c1ccc(Br)cc1)CC2,–,inactive: 1.28%
Cc1onc(-c2ccccc2Cl)c1C(=O)NCc1nc(-c2ccc(C(F)(F)F)cc2)no1,"inconclusive [cytotoxic, single point]",–
Cc1oc2cc(Br)c(O)c(Br)c2c1-c1ccccc1,"inconclusive [cytotoxic, single point]",–
Cc1nc(-c2ccc(NC(=O)c3ccc(Br)o3)cc2)cs1,"inconclusive [cytotoxic, partial curve]",–
CCn1c(CC(=O)Nc2ccccc2)nnc1SCC(=O)Nc1nnc(C)s1,–,inactive: -1.08%
C=CC[C@]12C=C(OC)C(=O)C=C1O[C@@H](c1ccc3c(c1)OCO3)[C@H]2C,–,inactive: 4.61%
COc1cc(-c2cnc3c(NC=O)cc(-c4ccsc4)cn23)cc(OC)c1OC,"inconclusive [cytotoxic, full curve]",–
C=CCc1ccccc1OCC(=O)N/N=C/c1ccc(OC(C)=O)cc1OC(C)=O,"inconclusive [cytotoxic, partial curve]",–
CC(=NNc1nc2ccccc2s1)c1ncccn1,active: 1.16 µM,–
O=[N+]([O-])c1ccc(CC(Cl)c2ccccn2)cc1 (stereo unspecified),–,inactive: -7.82%
CN1CCN(c2ccc(C(CC(N)=O)NC(=O)Cc3cccc4ccccc34)cc2[N+](=O)[O-])CC1 (stereo unspecified),–,inactive: -1.38%

Compound,Potency,"activity, negative = toxicity"
C=CCN(CC=C)S(=O)(=O)c1ccc(C(=O)Nc2nnc(CSC)o2)cc1,"inconclusive [cytotoxic, single point]",–
COc1c(O[C@@H]2O[C@H](CO)[C@@H](O)[C@H](O)[C@H]2O)cc2c(c1OC)-c1ccc(SC)c(=O)cc1C(NC(C)=O)CC2 (stereo partly specified),"inconclusive [cytotoxic, single point]",–
Cc1ccc2[nH]c(=O)c3cc(C(=O)N(CCCOC(C)C)Cc4ccco4)sc3c2c1,"inconclusive [cytotoxic, single point]",–
COc1ccc(-n2nnnc2SCC(=O)Nc2nc3c(s2)CCCC3)cc1,active: 18.4 µM,–
CC(C)CNc1ncnc2c1ncn2[C@H]1CN(Cc2ccc3c(c2)OCO3)C[C@@H](CO)O1,–,inactive: 22.8%
O=C(Cc1cccc2ccccc12)Nc1nc(-c2cccc([N+](=O)[O-])c2)cs1,"inconclusive [cytotoxic, single point]",–
Cc1nnc(NC(=O)c2ccc(S(=O)(=O)N3CCCCC3)cc2)s1,–,inactive: 5.42%
CC1(C)C(=O)N(c2ccccc2)C1c1ccccc1O (stereo unspecified),"inconclusive [cytotoxic, single point]",–
CC(=O)N(Cc1ccc(Br)cc1)c1ccccc1C(=O)O,–,inactive: 8.88%
COc1cccc(/C(O)=C2/C(=O)C(=O)N(c3cc(C)on3)C2c2cccs2)c1 (stereo unspecified),"inconclusive [cytotoxic, single point]",–
Cc1ccc(C)c(NC(=O)CCC(=O)NNC(=O)C(c2ccccc2)c2ccccc2)c1,"inconclusive [rising, single point]",–
Cc1ccc(CSCC(=O)N2CCOCC2)cc1,–,inactive: 13.8%
CC(C)(C)n1nnnc1C(c1cccnc1)N(Cc1ccccc1)Cc1cccs1 (stereo unspecified),"inconclusive [cytotoxic, single point]",–
CCOC(=O)C1CC2=C(CCCC2=O)NC1=O (stereo unspecified),–,inactive: -1.49%
N#CC1(c2ccccc2)CCN(S(=O)(=O)c2ccc(OC(F)(F)F)cc2)CC1,–,inactive: -8.35%
COc1ccc(C(=O)N/N=C/C(=O)c2ccccc2)cc1,–,inactive: 4.26%
CCN(CC)CCCN(C(=O)c1ccco1)c1nc(-c2ccc(Cl)cc2)cs1,active: 14.6 µM,–
O=c1[nH]c(=O)n(C2OC(CO)C(O)C2O)cc1F (stereo unspecified),active: 0.92 µM,–
O=C(Nc1cccc(C(F)(F)F)c1)c1cccnc1NCCc1ccccc1,"inconclusive [cytotoxic, single point]",–
O=C(N/C=N/OCc1ccc(Cl)cc1Cl)NOCc1c(Cl)cccc1Cl,active: 16.4 µM,–
COc1cc([N+](=O)[O-])ccc1NC(=O)COC(=O)CCOc1ccc(C)cc1,"inconclusive [cytotoxic, single point]",–
CCOC(=O)C1=C(C)N=C2SCCC(=O)N2[C@@H]1/C=C/c1ccccc1,–,inactive: -5.34%
CCC(c1ccc(O)cc1)C(CC)c1ccc(O)cc1 (stereo unspecified),"inconclusive [cytotoxic, single point]",–
